Laboratory results as given in publication PMC9911399, “Two distinct binding modes provide the RNA-binding protein RbFox with extraordinary sequence specificity”.
Residue numbers refer to the chain shown, from its start. The list shows a part of the results.

B1: CUGCAUC (DNA:RNA)
RNA: GGGAGACCGGAAUUCAGAUUGUCCCUGCAUCUUAAAUCCCGUCGUAGCCACCA
DNA 1: CAATCTGAATTCCGGTCTCCC
DNA 2: TGGTGGCTACGACGGGATT
B2: CAGAGCU (DNA:RNA)
RNA: B1 RNA with U26A, C28A, A29G, U30C, C31U
DNA 1: CAATCTGAATTCCGGTCTCCC
DNA 2: TGGTGGCTACGACGGGATT
B3: CAGUCCA (DNA:RNA)
RNA: B1 RNA with U26A, C28U, A29C, U30C, C31A
DNA 1: CAATCTGAATTCCGGTCTCCC
DNA 2: TGGTGGCTACGACGGGATT
B4: CGUAACU (DNA:RNA)
RNA: B1 RNA with U26G, G27U, C28A, U30C, C31U
DNA 1: CAATCTGAATTCCGGTCTCCC
DNA 2: TGGTGGCTACGACGGGATT
B5: UUGAGGC (DNA:RNA)
RNA: B1 RNA with C25U, C28A, A29G, U30G
DNA 1: CAATCTGAATTCCGGTCTCCC
DNA 2: TGGTGGCTACGACGGGATT
B6: CGGCGGU (DNA:RNA)
RNA: B1 RNA with U26G, A29G, U30G, C31U
DNA 1: CAATCTGAATTCCGGTCTCCC
DNA 2: TGGTGGCTACGACGGGATT
B7: GCUGCUU (DNA:RNA)
RNA: B1 RNA with C25G, U26C, G27U, C28G, A29C, C31U
DNA 1: CAATCTGAATTCCGGTCTCCC
DNA 2: TGGTGGCTACGACGGGATT
B8: CAACCUG (DNA:RNA)
RNA: B1 RNA with U26A, G27A, A29C, C31G
DNA 1: CAATCTGAATTCCGGTCTCCC
DNA 2: TGGTGGCTACGACGGGATT
B9: CAGGGAA (DNA:RNA)
RNA: B1 RNA with U26A, C28G, A29G, U30A, C31A
DNA 1: CAATCTGAATTCCGGTCTCCC
DNA 2: TGGTGGCTACGACGGGATT
B10: AGCUCUU (DNA:RNA)
RNA: B1 RNA with C25A, U26G, G27C, C28U, A29C, C31U
DNA 1: CAATCTGAATTCCGGTCTCCC
DNA 2: TGGTGGCTACGACGGGATT
B11: CUAGUUC (DNA:RNA)
RNA: B1 RNA with G27A, C28G, A29U
DNA 1: CAATCTGAATTCCGGTCTCCC
DNA 2: TGGTGGCTACGACGGGATT
B12: CAAUUUA (DNA:RNA)
RNA: B1 RNA with U26A, G27A, C28U, A29U, C31A
DNA 1: CAATCTGAATTCCGGTCTCCC
DNA 2: TGGTGGCTACGACGGGATT
B13: GUACGCA (DNA:RNA)
RNA: B1 RNA with C25G, G27A, A29G, U30C, C31A
DNA 1: CAATCTGAATTCCGGTCTCCC
DNA 2: TGGTGGCTACGACGGGATT
B14: UUCAAGG (DNA:RNA)
RNA: B1 RNA with C25U, G27C, C28A, U30G, C31G
DNA 1: CAATCTGAATTCCGGTCTCCC
DNA 2: TGGTGGCTACGACGGGATT
B15: CUCCUAU (DNA:RNA)
RNA: B1 RNA with G27C, A29U, U30A, C31U
DNA 1: CAATCTGAATTCCGGTCTCCC
DNA 2: TGGTGGCTACGACGGGATT
B16: AGCUUCG (DNA:RNA)
RNA: GGGAGACCGGAAUUCAGAUUGUCCAGCUUCGUUAAAUCCCGUCGUAGCCACCA
DNA 1: CAATCTGAATTCCGGTCTCCC
DNA 2: TGGTGGCTACGACGGGATT
B17: GUCAGCC (DNA:RNA)
RNA: B16 RNA with A25G, G26U, U28A, U29G, G31C
DNA 1: CAATCTGAATTCCGGTCTCCC
DNA 2: TGGTGGCTACGACGGGATT
B18: AGACCGA (DNA:RNA)
RNA: B16 RNA with C27A, U28C, U29C, C30G, G31A
DNA 1: CAATCTGAATTCCGGTCTCCC
DNA 2: TGGTGGCTACGACGGGATT
B19: AAUGUUC (DNA:RNA)
RNA: B16 RNA with G26A, C27U, U28G, C30U, G31C
DNA 1: CAATCTGAATTCCGGTCTCCC
DNA 2: TGGTGGCTACGACGGGATT
B20: AAGGGGA (DNA:RNA)
RNA: B16 RNA with G26A, C27G, U28G, U29G, C30G, G31A
DNA 1: CAATCTGAATTCCGGTCTCCC
DNA 2: TGGTGGCTACGACGGGATT

Target: T1, RBFOX1 RRM RbFoxmut (Fox-RRM*) (Homo sapiens, UniProt Q9NWB1 109-208, R118D;E147R;N151S;E152T)
T1 sequence: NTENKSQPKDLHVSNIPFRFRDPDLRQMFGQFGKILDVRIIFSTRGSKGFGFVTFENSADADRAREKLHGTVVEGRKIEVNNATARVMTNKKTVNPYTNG
Assay: EMSA; HiTS-Eq, 1 nM pool, 10 min; buffer printed only for the single-RNA assays: 10 mM Tris pH 7.5, 150 mM NaCl, 3.4 mM EDTA, 0.001% NP-40, 30 C
Settings: tags: His6 N-terminal (pET28a); label: 5' 32P
How it was run: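 Relative association constants, normalised to the cognate motif, were derived by comparing read counts of each RNA species with those of the control reaction. The RNA sequenced was the free fraction, separated by 8% native PAGE after a 10 min equilibration in 50 µL of 1 nM 5′-radiolabelled RNA (7 randomized nucleotides) with increasing concentrations of purified wild-type or mutant RbFox RRM.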

Binder	binding signal
B1	0.457 KA relative to UGCAUGU
B2	0.101 KA relative to UGCAUGU
B3	0.0967 KA relative to UGCAUGU
B4	0.0972 KA relative to UGCAUGU
B5	0.08 KA relative to UGCAUGU
B6	0.119 KA relative to UGCAUGU
B7	0.0803 KA relative to UGCAUGU
B8	0.057 KA relative to UGCAUGU
B9	0.121 KA relative to UGCAUGU
B10	0.0707 KA relative to UGCAUGU
B11	0.0809 KA relative to UGCAUGU
B12	0.12 KA relative to UGCAUGU
B13	0.181 KA relative to UGCAUGU
B14	0.0713 KA relative to UGCAUGU
B15	0.0911 KA relative to UGCAUGU
B16	0.135 KA relative to UGCAUGU
B17	0.0902 KA relative to UGCAUGU
B18	0.112 KA relative to UGCAUGU
B19	0.0951 KA relative to UGCAUGU
B20	0.0737 KA relative to UGCAUGU
